Test results as given in PubChem BioAssay AID1347428 (National Center for Advancing Translational Sciences (NCATS), 2020).
Hit rate of the full screen: of about 91,000 compounds, about 290 (0.32%) were called active. The shares of active, inactive and inconclusive entries below differ from those in the screen. Calls follow the shape of the dose curve; as a rule, active = well fitted inhibition curve with a large enough effect; inconclusive = small, poorly fitted or top-dose-only effect; inactive = no such curve, though single readings can be large or run the other way. Where the call is inconclusive, the potency comes from a doubtful curve fit.
Also: nearly all actives have a fitted effect of over 25% in size.
Potency is read from the fitted curve at half-maximal effect; tags tell the direction and shape of the fitted curve.

Each compound was assayed against Single-stranded DNA cytosine deaminase (Homo sapiens) (UniProt Q9GZX7) (assay: Primary qHTS assay for inhibitors of Activation Induced Cytidine Deaminase (AID): AID signal). Settings: AID deamination FRET fluorescence, UDG-coupled, 4 h; series mostly up to 115 µM.
Chain of UniProt Q9GZX7 (Q9GZX7 whole entry, looked up): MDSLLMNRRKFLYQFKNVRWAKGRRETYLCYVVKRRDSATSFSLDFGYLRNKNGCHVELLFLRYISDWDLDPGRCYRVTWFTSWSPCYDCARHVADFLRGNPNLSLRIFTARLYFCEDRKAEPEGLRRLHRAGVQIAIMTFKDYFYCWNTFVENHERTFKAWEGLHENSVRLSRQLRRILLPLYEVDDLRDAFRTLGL
`Cc1cccc(-n2ncc3c(Nc4c(C)cc(C)cc4C)ncnc32)c1` was tested, and the Potency was inconclusive: 17.8 µM [inhibitor, full curve, poor fit].
`Cc1ccc(CCNC(=O)c2ccc(CSCc3ccc(C)cc3)o2)cc1` was tested, and the Potency was inconclusive: 12.6 µM [inhibitor, partial curve, poor fit].
In the case of `C#CCNC(=O)c1sc(C(C)C)nc1C`, the Potency is reported as “inactive”.
In the case of `Cc1cc2ccccc2n1-c1ccc(C(=O)N2CCC(C(=O)NCc3ccc(F)cc3)CC2)s1`, the Potency is reported as inconclusive: 14.1 µM [inhibitor, partial curve, poor fit].
With `CCC(C)(C)C1CCC(NC(=O)c2cccnc2Cl)CC1` (stereo not given) the Potency was “inactive”.
`O=C(NCC(c1cccs1)S(=O)(=O)c1cccs1)c1ccc(C(F)(F)F)cc1` (stereo not given) was tested, and the Potency was inconclusive: 17.8 µM [inhibitor, full curve].
`CCOC(=O)N1CCN(/[N+]([O-])=N/Oc2ccc([N+](=O)[O-])cc2[N+](=O)[O-])CC1` was tested, and the Potency was inconclusive: 56.2 µM [inhibitor, partial curve].
`Cc1ccc(-n2ncc3c(N(CCO)Cc4ccccc4)ncnc32)cc1` was tested, and the Potency was inconclusive: 10 µM [inhibitor, full curve].
For `CN(Cc1ccccc1)C(=O)c1cc2c(s1)-c1ccc(Cl)cc1SC2`, the Potency was inconclusive: 31.6 µM [inhibitor, partial curve, poor fit].
In the case of `CCOC(=O)c1c(C)oc2ncnc(N3CCN(c4cccc(Cl)c4)CC3)c12`, the Potency is reported as inconclusive: 50.1 µM [inhibitor, partial curve, poor fit].
For `Clc1ccc(CCNC(c2cccc(Cl)c2)c2nnc(-c3ccccc3)o2)cc1` (stereo not given), the Potency was inconclusive: 28.2 µM [inhibitor, full curve].
`COc1ccc(NC(=O)C2CCN(c3nc(-c4ccc(OC)c(OC)c4)no3)CC2)cc1Cl` was tested, and the Potency was “inactive”.
With `COc1ccccc1CNC(=O)CCCn1c(=O)c2cccn2c2ccccc21` the Potency was inconclusive: 35.5 µM [inhibitor, partial curve, poor fit].
For `CNC(=O)c1ccc(CN(C(=O)Cn2c(C)cc3ccccc32)C2CC2)cc1`, the Potency was “inactive”.
With `Cc1ccc(C(=O)/C=C/c2cc(Br)c(O)c(Br)c2)cc1` the Potency was inconclusive: 89.1 µM [inhibitor, partial curve, poor fit].
`Nc1nc[nH]c(=O)c1N` was tested, and the Potency was “inactive”.
With `CCN(C(=O)CSc1nc(-c2ccccc2)no1)c1cccc(C)c1` the Potency was inconclusive: 50.1 µM [inhibitor, partial curve, poor fit].
With `CN1C(C(=O)NC2CCCCC2)=CC(c2cccs2)=NS1(=O)=O` the Potency was “inactive”.
With `CC1CCc2c(c(-c3cccc(O)c3)nc3ccc4ccccc4c23)C1` (stereo not given) the Potency was “inactive”.
For `N#Cc1ccc(C(=O)OCCOc2cccc(Cl)c2)cc1`, the Potency was “inactive”.
For `O=C(COC(=O)CCc1nc2ccccc2s1)Nc1ccccc1C(=O)c1ccccc1`, the Potency was inconclusive: 50.1 µM [inhibitor, partial curve, poor fit].
`CCN(C(=O)CSc1nc2ccccc2nc1Cc1cccc(OC)c1)c1cccc(C)c1` was tested, and the Potency was inconclusive: 25.1 µM [inhibitor, full curve, poor fit].
`CCCCOc1ccc(C(=O)NCCS(=O)(=O)N2CCN(c3ccccc3OC)CC2)cc1` was tested, and the Potency was inconclusive: 39.8 µM [inhibitor, single point].
For `CN(C)c1ccc(C(CNC(=O)c2ccccc2Cl)N2CCc3ccccc32)cc1` (stereo not given), the Potency was inconclusive: 28.2 µM [inhibitor, partial curve, poor fit].
In the case of `COc1cccc(NC(=O)CSc2nnc3[nH]c(=O)cc(-c4ccccc4)n23)c1`, the Potency is reported as inconclusive: 14.1 µM [inhibitor, full curve, poor fit].
For `O=C(c1cc2ccccc2oc1=O)N1CCCN(Cc2ccccc2)CC1`, the Potency was “inactive”.
For `COc1cccc(-n2ccnc2SCC(=O)Nc2nc3ccc(C)cc3s2)c1`, the Potency was inconclusive: 100 µM [inhibitor, single point].
In the case of `Cc1noc(-c2ccc(N(C)Cc3ccccc3)c([N+](=O)[O-])c2)n1`, the Potency is reported as inconclusive: 50.1 µM [inhibitor, partial curve, poor fit].
`CCOc1ccc(N(CC)C(=O)c2cc3c(s2)-c2ccc(Cl)cc2SC3)cc1` was tested, and the Potency was inconclusive: 11.2 µM [inhibitor, partial curve, poor fit].
With `CCOC(=O)C1CCN(c2nc3c(S(=O)(=O)c4ccc(CC)cc4)nnn3c3ccc(Cl)cc23)CC1` the Potency was inconclusive: 79.4 µM [inhibitor, partial curve, poor fit].
For `Cc1ccc2c(c1)-c1c(cnn1CC(=O)N1CCN(c3cc(Cl)ccc3C)CC1)CO2`, the Potency was inconclusive: 50.1 µM [inhibitor, partial curve, poor fit].
`O=C(/C=C/c1cccc(O)c1)c1ccc(F)cc1` was tested, and the Potency was inconclusive: 79.4 µM [inhibitor, partial curve, poor fit].
In the case of `Cc1cccc2c(C(=O)O)cc(-c3ccc(Cl)s3)nc12`, the Potency is reported as inconclusive: 56.2 µM [inhibitor, partial curve, poor fit].
With `COc1ccc(Nc2cc(C)c3cc(NC(=O)c4cc(OC)cc(OC)c4)ccc3n2)cc1` the Potency was inconclusive: 89.1 µM [inhibitor, single point].
With `Cn1c(=O)[nH]c(=O)c2c1nc(N1CCN(Cc3ccc(Cl)cc3)CC1)n2Cc1ccccc1F` the Potency was inconclusive: 50.1 µM [inhibitor, partial curve, poor fit].
`Cc1nc(NC(=O)C2CC(=O)N(CC(C)C)C2)sc1C` (stereo not given) was tested, and the Potency was “inactive”.
`CC(=O)c1cccc(NC(=O)c2cc3nc(-c4ccc(Br)cc4)cc(C(F)(F)F)n3n2)c1` was tested, and the Potency was inconclusive: 39.8 µM [inhibitor, full curve, poor fit].
With `COc1ccc(CNC(=O)C2Cc3cc(S(=O)(=O)N4CCCCCC4)ccc3N2C(C)=O)cc1` (stereo not given) the Potency was inconclusive: 12.6 µM [inhibitor, partial curve, poor fit].
`COc1ccc(N(Cc2cccs2)C(=O)COc2cc(C)c(Cl)c(C)c2)cc1` was tested, and the Potency was inconclusive: 12.6 µM [inhibitor, full curve, poor fit].
In the case of `CC(C)(C)C(=O)C[S+]1CCCC1`, the Potency is reported as “inactive”.
